In PubChem BioAssay AID1508623 (National Center for Advancing Translational Sciences (NCATS), 2021):
The whole screen tested about 48,000 compounds, of which about 450 (0.94%) were called active. About 19% were inconclusive and are not listed. Calls follow the shape of the dose curve; as a rule, active = well fitted inhibition curve with a large enough effect; inconclusive = small, poorly fitted or top-dose-only effect; inactive = no such curve, though single readings can be large or run the other way. Some of the results follow.

experiment: Primary qHTS for Identification of Small Molecule Inhibitors of Huntingtin Promoter Activity; conditions: HEK293 HTT promoter firefly luciferase reporter (activity 0% = vehicle and -100% = no light), 24 h; series mostly up to 57.5 µM; activity change, negative = inhibition: at the top concentration; also: nearly all actives have a fitted effect of over 50% in size
Outline: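 Luminescence was read after Dual-Glo reagent and a 10 min room-temperature incubation. Values were normalized to vehicle (0% activity) and zero RLU (-100% activity). Reporter HEK293 cells had been exposed to compounds (up to 57.5 uM final) for 24 h.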
Potency is read from the fitted curve at half-maximal effect.

Activity change, negative = inhibition, inactive:
CCC1CN(C(=O)C2CCN(S(=O)(=O)c3c(C)noc3/C=C/c3ccccc3F)CC2)c2cc(Cl)ccc2O1 (centres undefined) -18.4%
COc1ccc(N(Cc2cccs2)C(=O)c2ccc(Br)o2)cc1 -25.8%
CCc1ccc(NC(=O)CSC2=Nc3ccccc3C3=NC(CC(=O)NC4CCCCC4)C(=O)N23)cc1 (centres undefined) 11.1%
Cc1ccc2c(=O)cc(C(=O)Nc3ccc(S(=O)(=O)Nc4nc(C)cc(C)n4)cc3)oc2c1 5.24% [at 11.5 µM]
CCCOC(=O)c1ccccc1 -3.82%
CCOc1cc(C2C(C(=O)Nc3ccc(OC)cc3)=C(C)Nc3nc(SC)nn32)ccc1O (centres undefined) -31.9%
CCC(Sc1ncnc2sc3c(c12)CCCC3)C(=O)OC(C)C (centres undefined) -12.3%
CCCC(=O)N1CC(=O)Nc2ccc(Cl)cc2C1c1ccccc1 (centres undefined) -25.3%
O=C(c1ccco1)n1nc(-c2ccc(Cl)cc2)nc1NCc1ccccc1 30.3%
Cc1ccc(N2C(=O)NC(NS(=O)(=O)c3ccc(Cl)cc3)(C(F)(F)F)C2=O)cc1C (centres undefined) -28.5%
CCc1ccc(NC(=O)Cn2c(=O)n(Cc3nc(-c4ccccc4)no3)c(=O)c3cc4c(cc32)OCO4)cc1 -3.36%
Cc1cccc(C(=O)Nc2ccc(C(=O)OCc3cc(=O)n4nc(C5CC5)sc4n3)cc2)c1 -21.1%
COc1ccccc1N1CCN(C(=O)CCc2nnc3n(C)c(=O)c4sccc4n23)CC1 -7.55%
COc1ccc(S(=O)(=O)NCC(c2ccc(N(C)C)cc2)N2CCc3ccccc32)cc1 (centres undefined) -16.5%
COCCNC(=O)CSc1cn(CC(=O)N2CCCCCC2)c2ccccc12 -16.9%
CSc1ccc(CCNC(=O)Cn2ncc3c(=O)oc4ccccc4c32)cc1 -12.7%
CCOc1ccc(OCC)c(NC(=O)C2CCN(S(=O)(=O)c3cn(C)cn3)CC2)c1 2.11%
Cc1ccc(C)c(CSc2ccc3nnc(CCNS(=O)(=O)c4ccccc4)n3n2)c1 -12.4%
Cc1ccn2c(Nc3ccc(F)cc3)c(-c3ccccn3)nc2c1 2.08%
O=C(Cn1nc(-c2ccccc2)nc(Cc2ccccc2)c1=O)Nc1ccccc1 -19.5%
CCCCC(=O)OC1=C(C(C)=O)N(Cc2ccccc2)S(=O)(=O)c2ccccc21 -24.6%
O=C(NCCc1nc2ccccc2n1Cc1ccccc1)c1ccco1 -9.1%
CCN(CC)CCNC(=O)C1CCN(c2cc(C)nc3c(-c4ccc(Cl)cc4)c(C)nn23)CC1 -9.57%
Cc1ccc(NS(=O)(=O)c2cnc(N)nc2)c(C)c1 0.249%
CCc1nn(CC(=O)Nc2cc(C)cc(C)c2)c(=O)c2cc3sccc3n12 -19.4%
Cc1nc(-n2nc(C)c(Cc3ccc4c(c3)OCO4)c2C)sc1C(=O)Nc1cccc(Cl)c1 -5.2%
CSc1cccc(NC(=O)CC(c2cccs2)N2Cc3ccccc3C2=O)c1 (centres undefined) -28.4%
COc1cc(-c2noc(CN3CCN(c4cccc(Cl)c4)CC3)n2)cc(OC)c1OC -20.8%
Cc1ccc(NC(=O)CSc2n[nH]c(-c3ccc(F)cc3)n2)cc1F -8.33%
O=Cc1ccccc1C=O 3.92%
COc1ccc2nc(NC(=O)c3nc(S(=O)(=O)Cc4ccccc4)ncc3Cl)sc2c1 -29.5%
CSc1ccc(CCNC(=O)CCc2c(C)nc3c(c(C)nn3-c3ccc(C)c(C)c3)c2C)cc1 8.6%
CCOC(=O)c1cccc(NC(=O)c2ccc3nc(C(C)C)oc3c2)c1 -23.1%
O=C(Nc1cccc(Cl)c1Cl)c1cc2nc(-c3ccc(Cl)cc3)cc(C(F)(F)F)n2n1 -12.6% [at 11.5 µM]
CCC(C(=O)Nc1nnc2n1CCS2)c1ccccc1 (centres undefined) -7.79%
COc1ccc(Cn2c(=O)n(-c3ccccc3C)c(=O)c3c4c(sc32)CN(C(C)=O)CC4)cc1 -23%
CCCN(CCC)CCNC(=O)c1cc2c(-c3ccc(Cl)cc3)nn(C)c2s1 -18%
COc1ccc(NC(=O)N2CCc3c(sc4c3CCCC4)C2c2ccccc2OC)cc1 (centres undefined) -6.04%
CC(C)CC(=O)Nc1ccc2nc(SCC(=O)N3CCCC3)sc2c1 3.68%
Cc1ccc(NC(=O)CCn2nc(C)c(S(=O)(=O)N3CCCCC3)c2C)cc1Cl -31.8%
CCOc1ccc(N(CC(=O)Nc2cc(C)ccc2C)S(=O)(=O)c2c(C)[nH]c(=O)[nH]c2=O)cc1 -15.5% [at 11.5 µM]
CCOC(=O)c1c(C)sc(-c2c(-c3cc(C)ccc3C)[nH]c3c2c(=O)n(C)c(=O)n3C)c1O -13.7%
CCN(c1ccc(C)cc1)S(=O)(=O)c1nnc(NC(=O)C2CCCCC2)s1 9.59%
Cc1ccc(C)c(CN2C(=O)c3ccccc3S(=O)(=O)c3ccc(C(=O)N4CCc5ccccc54)cc32)c1 -13.7%
CCCNC(=O)CSc1nc2ccccc2nc1Cc1ccc(Cl)cc1 -8.12%
CCn1c(CNC(=O)c2ccc(OC)cc2)nnc1SCC(=O)Nc1ccccc1 -6.46%
COC(=O)c1ccc(NC(=O)CCc2c(C)nc3c(-c4ccccc4)c(C)nn3c2C)cc1 -27.2%
COc1ccc(-n2c(C)c(C(C)=O)c3cc(OC(=O)c4ccc(C)cc4)ccc32)cc1 -1.66%
CCOC(=O)c1ccc(OCC2c3cc(OC)c(OC)cc3CCN2C(=O)c2ccc(S(=O)(=O)N3CCCC3)cc2)cc1 (centres undefined) -14.3%
Cc1ccc(CCNC(=O)c2cn(C)c3ccc(S(=O)(=O)N(C)C4CCCCC4)cc3c2=O)cc1 1.45%
Cc1ccc(Cn2cc(C(=O)c3ccc(F)cc3)c(=O)c3cc4c(cc32)OCO4)cc1 -24%
COc1ccc(CNS(=O)(=O)c2cc3c(cc2C)N(C)CCO3)cc1 -26.9%
CCOC(=O)Cn1c(=O)n(CC2CCCO2)c2nc(-c3ccccc3F)nc(C(N)=O)c21 (centres undefined) -15%
Cc1cccc(NC(=O)c2cc(S(=O)(=O)NCc3ccc4c(c3)OCO4)ccc2F)c1C -29.3%
COc1ccccc1-n1c(=O)c2c3c(sc2n(C)c1=O)CN(C(C)=O)CC3 -1.68%
CCOC(=O)Cc1ccc(NC(=O)Nc2ccccc2OCc2cc(=O)n3ccccc3n2)cc1 7.5%
CCn1nnc2cc(C(=O)Nc3cccc(Cl)c3C)ccc21 17.8%
COc1ccc(Cn2c(CNS(=O)(=O)c3ccc(C)c(C)c3)nc3cccnc32)cc1 0.64%

Potency, active:
Cc1ccc(CN2CCCn3nc(C(=O)NCc4ccc(OC(C)C)cc4)cc3C2=O)cc1 17.8 µM
